Experimental data taken from US10299477B2 (priority 2015, dated 2019).

Columns and labels:
Format in all cases: in vivo
[1] = system: Blumeria graminis f sp. hordei; experiment: Test Example D: Powdery mildew on barley; conditions: Powdery mildew on barley; control value=100{1-(n/3)}
From the text: [Test Example D] Powdery Mildew on Barley
After the sprayed dilutions were dried, conidia of Blumeria graminis f sp. hordei were inoculated to the plants by shaking off.

Puccinia recondita = experiment: Test Example E: Brown rust on wheat; conditions: Brown rust on wheat; control value=100{1-(n/3)}
From the text: [Test Example E] Brown Rust on Wheat

Botrytis cinerea = experiment: Test Example B: Gray mold on tomato; conditions: Gray mold on tomato; control value=100{1-(n/3)}
From the text: [Test Example B] Gray Mold on Tomato
Seeds of a test plant (tomato variety: Oogata Fukuju) were planted followed by cultivating until three to five first leaves (true leaves) appeared.

Plasmopara viticola = experiment: Test Example G: Downy mildew on vine; conditions: Downy mildew on vine; 250 ppm spray, 2.5 ml/pot; evaluated 7-10 days after inoculation
From the text: [Test Example G] Downy Mildew on Vine
Seeds of a test plant (grape variety: Neomuscat) were planted followed by cultivating until three to four first leaves appeared. […] After the sprayed dilutions were dried, a zoosporangia suspension (1-2×10^4 zoosporangia/ml) of Plasmopara viticola was inoculated to the plants by spraying.

Alternaia brassicicola = experiment: Test Example C: Alternaria sooty spot on cabbage; conditions: Alternaria sooty spot on cabbage; control value=100{1-(n/3)}
From the text: [Test Example C] Alternaria Sooty Spot on Cabbage
Seeds of a test plant (cabbage variety: Shikidori) were planted followed by cultivating until the cotyledons extended.

Compound	Test D (control value class) [1]	Test E (control value class) (Puccinia recondita)	Test B (control value class) (Botrytis cinerea)	Test G (control value class) (Plasmopara viticola)	Test C (control value class) (Alternaia brassicicola)
CCn1c(-c2c(F)cc(OC)cc2F)c(-c2cc(F)cc(F)c2Br)cc(Br)c1=O [Compound 820]	H (H shows more than 50% of control values)	H (H shows more than 50% of control values)	H (H shows more than 50% of control values)	H (H shows more than 50% of control values)	H (H shows more than 50% of control values)
CCn1c(-c2c(F)cc(F)cc2F)c(-c2ccccc2Cl)cc(I)c1=O [Compound 821]	H (H shows more than 50% of control values)	H (H shows more than 50% of control values)	H (H shows more than 50% of control values)	H (H shows more than 50% of control values)	H (H shows more than 50% of control values)
CCn1c(-c2c(F)cc(OC)cc2F)c(-c2ccccc2Cl)cc(I)c1=O [Compound 822]	L (L shows 50% or less of control values)	H (H shows more than 50% of control values)	H (H shows more than 50% of control values)	L (L shows 50% or less of control values)	H (H shows more than 50% of control values)
COc1cc(F)c(-c2c(-c3cc(F)cc(F)c3Br)ccc(=O)n2C)c(F)c1 [Compound 823]	H (H shows more than 50% of control values)	H (H shows more than 50% of control values)	H (H shows more than 50% of control values)	L (L shows 50% or less of control values)	H (H shows more than 50% of control values)
COc1cc(F)c(-c2c(-c3cc(F)cc(F)c3Br)cc(Cl)c(=O)n2C)c(F)c1 [Compound 824]	H (H shows more than 50% of control values)	H (H shows more than 50% of control values)	H (H shows more than 50% of control values)	H (H shows more than 50% of control values)	H (H shows more than 50% of control values)
